Measured values: publication PMC6919601, “Identification of Plasmodium dipeptidyl aminopeptidase allosteric inhibitors by high throughput screening” (PLoS ONE, 2019)
Hit rate of the full screen: of about 110,000 compounds, about 230 (0.21%) showed an effect of 50% or more. The list shows a part of the results.

What follows are compounds tested against DPAP1 (Plasmodium falciparum, UniProt Q8IIJ9) (assay: primary screen, percent inhibition; read by cleavage of a fluorogenic dipeptide substrate; higher = more effect of the substance).
Chain of DPAP1 (Q8IIJ9 whole entry, looked up): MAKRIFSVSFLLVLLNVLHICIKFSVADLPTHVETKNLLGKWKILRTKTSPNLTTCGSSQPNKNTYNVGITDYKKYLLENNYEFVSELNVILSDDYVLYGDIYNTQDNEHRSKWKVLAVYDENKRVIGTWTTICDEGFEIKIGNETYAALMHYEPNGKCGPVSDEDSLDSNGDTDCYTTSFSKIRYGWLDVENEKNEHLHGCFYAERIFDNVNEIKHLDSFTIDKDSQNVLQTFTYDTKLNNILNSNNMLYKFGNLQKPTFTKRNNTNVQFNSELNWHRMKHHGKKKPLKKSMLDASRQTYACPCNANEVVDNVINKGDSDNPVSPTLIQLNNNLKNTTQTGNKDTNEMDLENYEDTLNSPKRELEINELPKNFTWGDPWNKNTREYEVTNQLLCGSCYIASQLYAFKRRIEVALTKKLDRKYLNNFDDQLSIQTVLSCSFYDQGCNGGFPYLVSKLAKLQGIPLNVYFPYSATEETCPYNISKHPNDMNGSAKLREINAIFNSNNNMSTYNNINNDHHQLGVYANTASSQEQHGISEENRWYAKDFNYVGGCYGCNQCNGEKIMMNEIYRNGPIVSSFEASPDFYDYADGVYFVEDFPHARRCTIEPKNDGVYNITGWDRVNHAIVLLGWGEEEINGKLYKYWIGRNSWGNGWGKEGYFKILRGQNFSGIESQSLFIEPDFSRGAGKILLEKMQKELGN
Design: species or system P. falciparum D10 trophozoite lysates; single well
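Note: 30 min substrate incubation versus DMSO and 10 µM JCP410 controls.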

Row | SMILES | % Inhibition @ 10 uM
1 | O=C(O)c1ccc(C(=O)c2ccc(C(=O)O)c(C(=O)O)c2)cc1 | -6.71%
2 | COCCNc1nc2c(C)cccn2c(=O)c1/C=C1\SC(=S)NC1=O | 1.52%
3 | CCOC(=O)c1c(C)[nH]c(C)c1S(=O)(=O)NCC(=O)Nc1nc2ccc(OC)cc2s1 | -4.95%
4 | CCN1CCN(C(=O)Cn2ncc3c(=O)oc4ccc(C)cc4c32)CC1 | 4.74%
5 | CC(C)(C)c1nc(CN2CCOCC2)cc(CN2CCOCC2)c1O | 0.716%
6 | O=c1nc(-c2ccc(Cl)cc2)oc2ccccc12 | 4.26%
7 | CN1C(=O)C(=Cc2ccc(OCc3ccccc3)cc2)C(=O)N(C)C1=O | 17%
8 | CCN(Cc1ccccc1)S(=O)(=O)c1ccc(F)cc1 | 3.33%
9 | CC1=C(C(=O)OC2CCCC2)C(c2ccccc2)C2=C(O)CC(C)(C)CC2=N1 (stereo not shown) | -3.6%
10 | COc1ccc(CCNC(=O)Nc2cn(CC(C)C)c(=O)c3ccccc23)c(OC)c1 | 0.358%
11 | O=C(NC1(C(F)(F)F)C(=O)Nc2c1c(=O)[nH]c(=O)n2CCc1ccccc1)c1cccnc1 (stereo not shown) | 0.413%
12 | COc1ccc(C2(C(=O)N3CCCC3)CCCC2)cc1OC | 1.93%
13 | CCC1CCC(C(=O)NC(CCSC)C(=O)NCCc2ccc(S(N)(=O)=O)cc2)CC1 (stereo not shown) | 1.23%
14 | CCOc1ccc(N(C(C)=O)C2SC(=O)N(c3cccc(C)c3)C2=O)cc1 (stereo not shown) | 3.25%
15 | O=C(COc1ccc(Cl)cc1Cl)Nc1noc2ccccc12 | -1.11%
16 | CSc1nc2c(c(-c3ccc(Cl)cc3)c1C#N)C(=O)CC(C)(C)C2 | -1.98%
17 | CCN(CC)C(=O)Cn1c(=O)n(CCC(=O)NCCc2ccc(Cl)cc2)c(=O)c2sccc21 | -1.21%
18 | COC(=O)c1cc(S(=O)(=O)N(C)Cc2cnn(-c3ccccc3)c2)c[nH]1 | -1.55%
19 | COc1cc(C(=O)N(Cc2ccccc2F)C2CCS(=O)(=O)C2)cc(OC)c1OC (stereo not shown) | -1.35%
20 | COc1ccc(CCNCc2cc(OC)c3c(c2)OCO3)cc1OC | 2.22%
21 | O=C(CS(=O)(=O)c1ccc(C(F)(F)F)cc1Cl)Nc1ccc(F)cc1 | -1.28%
22 | O=C(O)c1ccc2[nH]c(CCc3ccccc3)nc2c1 | -6.94%
23 | Cc1cccc(N2CCN(c3ccc(NC(=O)CCC(=O)O)cc3)CC2)c1 | 3.49%
24 | Cn1c(SCC(=O)O)c(C=O)c2ccccc21 | 10.3%
25 | COc1ccc(-n2c(S)nnc2Cn2ncc3ccccc3c2=O)cc1 | 13.5%

Row | SMILES | % Inhibition @ 10 uM
26 | CCCCn1c(CN2CCCCC2CC)nc2c1c(=O)n(C)c(=O)n2C (stereo not shown) | -4.14%
27 | Cc1ccc(C(=O)Nc2nnc(S(=O)(=O)N(C)Cc3ccccc3)s2)cc1 | 1.68%
28 | COc1ccc(/C=C/C(=O)NC(=S)N2CCOCC2)cc1 | -4.18%
29 | COCc1cc(C)nc2sc3c(c12)NC1(CCCCC1)NC3=O | 2.34%
30 | COc1ccc(-n2c(CN3CCc4ccccc4C3)nc3ccccc3c2=O)cc1 | 0.245%
31 | COc1ccc2c(Cl)c(C(=O)Nc3ccc(S(N)(=O)=O)cc3)sc2c1 | -0.99%
32 | Cc1ccc(Cn2c(C)c3cnn(CC(=O)NCCN4CCCCCC4)c(=O)c3c2C)cc1 | 4.4%
33 | COc1cc(C2C3=C(O)CCCC3=NC3=C2C(=O)CCC3)ccc1OCc1ccc(C(=O)O)cc1 (stereo not shown) | -4.67%
34 | COc1ccc(N(CC(=O)N2CCCCC2)S(=O)(=O)c2ccc(C)cc2)c(OC)c1 | 0.0265%
35 | COc1ccc(Br)cc1C1=N/C(=C\c2c(F)cccc2Cl)C(=O)O1 | -4.92%
36 | CCOc1ccccc1CNc1ncnc2onc(-c3ccc(Cl)cc3)c12 | -0.495%
37 | CCOC(=O)c1c(N)n(-c2ccccc2O)c2nc3ccccc3nc12 | -4.01%
38 | O=C(O)/C=C1\OC(=O)c2ccccc21 | 1.63%
39 | N=C1/C(=C/c2ccc(Br)o2)C(=O)N=C2SC=C(c3ccccc3)N12 | -0.85%
40 | Clc1ccc(N2CC(c3ccc(Cl)cc3Cl)C(c3cccs3)=N2)cc1 (stereo not shown) | -4.91%
41 | COc1ccc(N2CCN(C(=O)COc3ccc(Br)cc3Cl)CC2)cc1 | -10.4%
42 | O=C(O)c1ccc(NS(=O)(=O)c2ccc(Cl)cc2)cc1 | -0.0619%
43 | C=CCOCCn1c2ccccc2c2ccccc21 | -2.02%
44 | COc1ccc(Sc2nn3nnnc3c3ccccc23)cc1 | 3.59%
45 | COc1ccccc1C(=O)Nc1nnc(S(=O)(=O)N2CCOCC2)s1 | 3.3%
46 | COCCNC(=O)c1ccc(CS(=O)c2cccc(Cl)c2)o1 (stereo not shown) | 4.9%
47 | CC(=O)Nc1ccc(C2C(C#N)=C(N)Oc3cc(O)ccc32)cc1 (stereo not shown) | -3.85%
48 | O=C(c1cc(-c2ccc(Cl)cc2)n[nH]1)N1CC=C(c2ccccc2)CC1 | 7.04%
49 | COC(=O)[C@]1(C)C=C2C3=CC(=O)C4[C@@]5(C)CCC(O)C(C)(C)C5CC[C@@]4(C)[C@]3(C)CC[C@@]2(C)CC1 (stereo partly shown) | -1.2%
50 | O=C(Cn1c(=O)c2cccn2c2cccnc21)NC1CCCc2ccccc21 (stereo not shown) | 12.9%

Row | SMILES | % Inhibition @ 10 uM
51 | Cc1c(CNC(=O)c2cnn3c(C(F)(F)F)cc(-c4ccc(Br)cc4)nc23)cnn1C | -5.57%
52 | CCn1c2ccccc2c2nnc(NCc3ccccc3Cl)nc21 | -3.42%
53 | CC1CCN(CCCNC(=O)CCc2nnc3n(Cc4ccccc4)c(=O)c4ccccc4n23)CC1 | 5.68%
54 | O=C(NCCC1=CCCCC1)c1ccc(CS(=O)Cc2cccc(Cl)c2)o1 (stereo not shown) | -3.32%
55 | CCOc1ccc(N2C(=O)CC(N(CCc3ccc(OC)cc3)C(C)=O)C2=O)cc1 (stereo not shown) | 0.431%
56 | CC(C)C[C@H](NC(=O)OCc1ccccc1)C(=O)N[C@@H](CCc1ccccc1)C(=O)C[N+](=O)[O-] | 7.72%
57 | Cc1cc(C)c2c(n1)nn1c(C3CC3)cc(C(F)(F)F)nc21 | 2.54%
58 | Cc1cc(C)c(Cn2c3ccccc3c3cnn(CC(=O)NC(C)C)c(=O)c32)c(C)c1 | -5.19%
59 | Cc1ccc2c(c1)C1(C(=O)N2)C(C#N)=C(N)OC2=C1CCN2 (stereo not shown) | 3.46%
60 | CSc1ccc(/C=C2\N=C(c3ccc(C)cc3)OC2=O)cc1 | -1.87%
61 | CC1CCN(C(=O)C23CC4CC(CC(C4)C2)C3)CC1 | -2.42%
62 | COc1ccc(OC)c(NC(=O)C2CCN(S(=O)(=O)c3cc(Cl)ccc3Cl)CC2)c1 | -0.795%
63 | c1coc(CN2CCN(Cc3ccc4c(c3)OCO4)CC2)c1 | -2.87%
64 | Cc1ccc(C(=O)N/C(=C\C2=Cc3ccccc3OC2C)C(=O)NCc2cccnc2)cc1 (stereo not shown) | 2.03%
65 | CC(C)C[C@H](Nc1nc(-c2ccccc2)cs1)C(=O)NCC#N | -6.46%
66 | CC(NCC(O)COc1ccccc1)C1COc2ccccc2O1 (stereo not shown) | -1.55%
67 | O=C(c1cccnc1)N1CCN(c2ccc(Cl)cc2)CC1 | 2.16%
68 | CC1=C(C#N)C(c2ccc(C)cc2)C2=C(O)CC(c3ccccc3)CC2=N1 (stereo not shown) | 2.44%
69 | CCC(C(=O)NCCc1ccccc1)n1ncn2c(cc3occc32)c1=O (stereo not shown) | -0.281%
70 | CCCN(CC#CC(O)(c1ccccc1)C1CCCC1)CCC (stereo not shown) | 0.774%
71 | Cc1cccc2[nH]c(SCC(=O)N3CCOCC3)nc12 | -2.22%
72 | COCCCNC(=O)C1CCCN(S(C)(=O)=O)C1 (stereo not shown) | -1.21%
73 | CCOC(=O)N1CCC(NC(=O)c2c(C)nn(-c3ccccc3)c2-n2cccc2)CC1 | 1.8%
74 | S=C(Nc1ccccc1)Nc1ccc2nc(S)sc2c1 | 39.8%
75 | Cc1ccccc1/C=N/n1c(C)nnc1C | 17%

Row | SMILES | % Inhibition @ 10 uM
76 | CCOc1ccccc1C1C(C#N)=C(C)N=C2CC(c3ccc(Cl)cc3)CC(O)=C21 (stereo not shown) | 18.2%
77 | Cc1noc(NS(=O)(=O)c2ccc(NC(=O)C3CC3c3ccccc3)cc2)c1C (stereo not shown) | -6.05%
78 | CSCC[C@H](NC(=O)OCc1ccccc1)C(=O)NCC#N | 2.86%
79 | COCC(=O)NCCCc1nc2ccccc2n1Cc1c(F)cccc1Cl | 7.17%
80 | CCN1C(=O)c2cccc3c(O)ccc1c23 | 4.22%
81 | CCOC(=O)/C=C/C(=O)Nc1sc2c(c1C#N)CCCC2 | -9.66%
82 | OC12CCCCC1C(c1c(Cl)cccc1Cl)NCC2 (stereo not shown) | -3.63%
83 | Nc1c(-c2nc(-c3cccnc3)no2)nnn1-c1cccc(C(F)(F)F)c1 | 0.0603%
84 | Cc1cc(N2C(=O)C3CCCN3C2c2ccccc2F)no1 (stereo not shown) | 2.9%
85 | Cc1oc2ccc(O)c(CN3CCCCC3C)c2c1C(=O)OCCOc1ccccc1 (stereo not shown) | 0.486%
86 | Clc1ccc(-n2ncc3c(NCC4CCCO4)ncnc32)cc1 (stereo not shown) | -0.757%
87 | Cc1cc(C)nc(NS(=O)(=O)c2ccc(NC(=O)C34CC5CC(CC(C5)C3)C4)cc2)n1 | 4.42%
88 | CCOc1ccc(C2CC(=O)N3CN(CCO)CSC3=C2C#N)cc1 (stereo not shown) | 61.2%
89 | O=C(CCCN1C(=O)C(c2ccccc2)Oc2cccnc21)NCCc1c[nH]c2ccccc12 (stereo not shown) | -2.1%
90 | Cn1nnnc1SCCNCc1c(OCc2ccc(F)cc2)ccc2ccccc12 | -5.33%
91 | COCC(=O)Nc1nc(-c2ccccc2)ns1 | -10.6%
92 | CC(=O)C1=C(Nc2ccc(Br)cc2)CC(C)(C)CC1=O | -3.46%
93 | CCCC(=O)Nc1c2c(nn1-c1ccc(C)cc1)CSC2 | 3.06%
94 | CC(CNc1nc2c(S(=O)(=O)c3ccccc3)nnn2c2ccccc12)c1ccccc1 (stereo not shown) | -4.85%
95 | C=CCn1c(O)c(CC)c(=O)[nH]c1=S | -3.8%
96 | CCOc1ccc(CNC(=O)C2CCN(S(=O)(=O)N3CCC4(CC3)OCCO4)CC2)cc1OC | 0.514%
97 | CCc1ccc(Sc2cc(C(=O)NCCN3CCOCC3)c3ccccc3n2)cc1 | -1.79%
